The RNAGym collection of RNA variant scans (doi:10.1093/nar/gkz1192)
Read counts are not given, so values of variants with three or more changes are uncertain.

B1: CPEB3 Ribozyme (parent)
chain: UAACAGGGGGCCACAGCAGAAGCGUUCACGUCGCAGCCCCUGUCAGAUUCUGGUGAAUCUGCGAAUUCUGCUGUAUAUCUC

Variants of: B1
Assay: self-cleavage, relative activity (ratio to wild type); higher = more cleavage; in vitro, sequencing
Outline: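 Relative activity was defined as the cleaved/total read fraction for a variant divided by the same fraction for the unmutated ribozyme. CPEB3 self-cleaving ribozyme libraries were made by rounds of error-prone PCR, barcoded, and transcribed in vitro with T7 RNA polymerase for 5 hours at 37°C, and cleavage ran through transcription plus a 15 min DNase I step before EDTA. Illumina sequencing of template-switched reverse transcripts gave the reads, and DNA sequencing mapped the barcodes. Averages come from three batches, using variants with at least 5 reads.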
For U25C A47G U51C A64U U74C, the self-cleavage was 0.23.
Variant U25C A47G U51C A75G has a self-cleavage of 0.06.
In the case of U25C A47G U51G U66C U80C, the self-cleavage is reported as 0.07.
U25C A47G U54C A56G C62U A64U gave a self-cleavage of 0.06.
In the case of U25C A47G U60A A75G, the self-cleavage is reported as 0.19.
With U25C A47G U60C U72C the self-cleavage was 0.25.
For U25C A47G U66G, the self-cleavage was 0.49.
In the case of U25C A47G U67A U78C, the self-cleavage is reported as 0.06.
U25C A47G U72A gave a self-cleavage of 0.29.
For U25C A47G U76C A77U, the self-cleavage was 0.28.
Work on U25C A47G U78C yielded a self-cleavage of 0.16.
Variant U25C A47U U48C U69A has a self-cleavage of 0.3.
For U25C A56C U67C U78C, the self-cleavage was 0.06.
U25C A56G C62G C71G gave a self-cleavage of 0.1.
Variant U25C A56G U60A A65G has a self-cleavage of 0.07.
Variant U25C A56G U66A U69C U76A U78C has a self-cleavage of 0.09.
Variant U25C A56G U66C U72A has a self-cleavage of 0.08.
In the case of U25C A56G U69C, the self-cleavage is reported as 0.14.
U25C A56G U72C gave a self-cleavage of 0.16.
Variant U25C A56G U76A has a self-cleavage of 0.1.
Work on U25C A56G U78C yielded a self-cleavage of 0.18.
U25C A56U A57G U78C showed a self-cleavage of 0.1.
U25C A56U A75U showed a self-cleavage of 0.08.
Work on U25C A56U A77G yielded a self-cleavage of 0.14.
In the case of U25C A56U C59U A64G U80C, the self-cleavage is reported as 0.21.
U25C A56U C59U U74C gave a self-cleavage of 0.08.
Work on U25C A56U C62U yielded a self-cleavage of 0.49.
In the case of U25C A56U U74A A75G, the self-cleavage is reported as 0.03.
In the case of U25C A57C A65G A77G, the self-cleavage is reported as 0.14.
U25C A57C G61A U74C gave a self-cleavage of 0.15.
For U25C A57G A64G U78C, the self-cleavage was 0.12.
For U25C A57G C71U C81U, the self-cleavage was 0.08.
U25C A57G U60C U66C gave a self-cleavage of 0.03.
U25C A57G U76A showed a self-cleavage of 0.06.
In the case of U25C A57G U78A U80C, the self-cleavage is reported as 0.18.
In the case of U25C A57G U80A, the self-cleavage is reported as 0.1.
With U25C A57U U72C U80C the self-cleavage was 0.55.
For U25C A57U U76C, the self-cleavage was 0.13.
For U25C A64G U66C, the self-cleavage was 0.19.
For U25C A64G U67A, the self-cleavage was 0.15.
In the case of U25C A64G U69G, the self-cleavage is reported as 0.57.
In the case of U25C A64U U78C, the self-cleavage is reported as 0.33.
In the case of U25C A65C U67C U72C U78A, the self-cleavage is reported as 0.07.
In the case of U25C A65G U72C U78C, the self-cleavage is reported as 0.4.
U25C A65G U74A gave a self-cleavage of 0.27.
For U25C A65G U74C, the self-cleavage was 0.18.
Work on U25C A65G U76A yielded a self-cleavage of 0.34.
Work on U25C A65U A75G yielded a self-cleavage of 0.12.
With U25C A65U C68A the self-cleavage was 0.08.
With U25C A65U G70A the self-cleavage was 0.09.
Work on U25C A65U U74A yielded a self-cleavage of 0.18.
Variant U25C A75G U76C has a self-cleavage of 0.14.
For U25C C27A C34G, the self-cleavage was 0.22.
U25C C27G A28G G73A U78C showed a self-cleavage of 0.32.
Work on U25C C27G C37G A45U A64G yielded a self-cleavage of 0.14.
U25C C27U A56G U67C gave a self-cleavage of 0.08.
Work on U25C C27U A64U U69C yielded a self-cleavage of 0.33.
In the case of U25C C27U C40A A57G U72C, the self-cleavage is reported as 0.37.
For U25C C27U U60A, the self-cleavage was 0.16.
U25C C29A A45G A47G U78C U80C showed a self-cleavage of 0.12.
U25C C29A A77U U80C showed a self-cleavage of 0.12.
In the case of U25C C29A C59A U69C U78A, the self-cleavage is reported as 0.14.
With U25C C29A U43A U54C A77G C81U the self-cleavage was 0.19.
U25C C29A U51A A77G U78C showed a self-cleavage of 0.12.
In the case of U25C C29G A35G A45C, the self-cleavage is reported as 0.18.
U25C C29G A64G gave a self-cleavage of 0.56.
Variant U25C C29G C39A has a self-cleavage of 0.06.
Work on U25C C29G U31C C44U U51G U66C U80C yielded a self-cleavage of 0.05.
U25C C29U A47U showed a self-cleavage of 0.22.
U25C C29U A47U U78C showed a self-cleavage of 0.13.
With U25C C29U A64U A77G U80C the self-cleavage was 0.1.
Work on U25C C29U C40U yielded a self-cleavage of 0.21.
For U25C C29U U31A U72C, the self-cleavage was 0.06.
With U25C C29U U41C U54A the self-cleavage was 0.25.
With U25C C29U U43C U69C the self-cleavage was 0.16.
For U25C C29U U49G U54G, the self-cleavage was 0.09.
U25C C32A A45G U66C U78C showed a self-cleavage of 0.06.
U25C C32A A45U G70C U78C gave a self-cleavage of 0.11.
For U25C C32A C38U U60C, the self-cleavage was 0.13.
Work on U25C C32G U48A U78A yielded a self-cleavage of 0.07.
U25C C32U A35G showed a self-cleavage of 0.39.
For U25C C32U A35G U72C, the self-cleavage was 0.14.
With U25C C32U A45G A56U U69C the self-cleavage was 0.07.
U25C C32U A45G U48C gave a self-cleavage of 0.08.
For U25C C32U A47U U78A, the self-cleavage was 0.21.
With U25C C32U C38A U49C C71A the self-cleavage was 0.05.
U25C C32U G33A G63C U72A U74A gave a self-cleavage of 0.07.
U25C C32U G33A U48G showed a self-cleavage of 0.18.
In the case of U25C C32U U58C, the self-cleavage is reported as 0.37.
In the case of U25C C32U U60A U72C, the self-cleavage is reported as 0.32.
Variant U25C C32U U76C has a self-cleavage of 0.14.
Variant U25C C34A U41C U76G has a self-cleavage of 0.15.
For U25C C34U A45G, the self-cleavage was 0.2.
In the case of U25C C34U C39U U51C A64G, the self-cleavage is reported as 0.08.
U25C C34U G42A A65G A77U gave a self-cleavage of 0.06.
For U25C C34U U41A U49C U60C, the self-cleavage was 0.1.
With U25C C34U U41C A64G U76A the self-cleavage was 0.07.
With U25C C34U U54A U72A the self-cleavage was 0.08.
For U25C C37A C39A A47G C50U U60C, the self-cleavage was 0.12.
In the case of U25C C37A C39A U48C A57G U69C, the self-cleavage is reported as 0.03.
Variant U25C C37A C71U has a self-cleavage of 0.1.
With U25C C37A U49C the self-cleavage was 0.06.
For U25C C37A U54A G63A U76C, the self-cleavage was 0.09.
Work on U25C C37A U54C yielded a self-cleavage of 0.17.
U25C C37U C39A gave a self-cleavage of 0.19.
Variant U25C C37U U48A U49C U67C has a self-cleavage of 0.05.
U25C C38A C62G showed a self-cleavage of 0.23.
In the case of U25C C38A U43A, the self-cleavage is reported as 0.08.
Variant U25C C38A U49C U54A U58A U60A U74A has a self-cleavage of 0.1.
Variant U25C C38A U54A U69C U78C has a self-cleavage of 0.17.
U25C C38A U72A U76C showed a self-cleavage of 0.06.
U25C C38G A47U U48C U51C U54C U58A gave a self-cleavage of 0.03.
Variant U25C C38G A64G has a self-cleavage of 0.07.
For U25C C38U A56G U76A, the self-cleavage was 0.05.
In the case of U25C C38U A65G, the self-cleavage is reported as 0.12.
With U25C C38U U41C the self-cleavage was 0.14.
U25C C38U U43C U51C U60A G63A U72A gave a self-cleavage of 0.02.
In the case of U25C C38U U54A A57G U69C U72C, the self-cleavage is reported as 0.15.
Variant U25C C38U U69A U78C has a self-cleavage of 0.07.
In the case of U25C C38U U80C, the self-cleavage is reported as 0.34.
With U25C C39A C59U U66C U80C the self-cleavage was 0.13.
U25C C39A U72A U74C showed a self-cleavage of 0.15.
U25C C39A U80C gave a self-cleavage of 0.14.
U25C C39U A47G U49A U72G A75G showed a self-cleavage of 0.02.
Variant U25C C39U A56U U58A C79A has a self-cleavage of 0.11.
In the case of U25C C39U A64U A65U G73A U80A, the self-cleavage is reported as 0.05.
Work on U25C C39U U41A A57G yielded a self-cleavage of 0.07.
U25C C39U U74C U78C gave a self-cleavage of 0.19.
Variant U25C C40A C79G has a self-cleavage of 0.24.
U25C C40A U49C U54A showed a self-cleavage of 0.11.
Variant U25C C40A U51A U54C has a self-cleavage of 0.1.
In the case of U25C C40A U67A U69A, the self-cleavage is reported as 0.05.
U25C C40G A77U gave a self-cleavage of 0.24.
In the case of U25C C40G C59A U66C, the self-cleavage is reported as 0.07.
With U25C C40G U49C U69A the self-cleavage was 0.07.
Work on U25C C40U A45G U66A U80C yielded a self-cleavage of 0.09.
U25C C40U A47G showed a self-cleavage of 0.21.
In the case of U25C C40U G46A U80A, the self-cleavage is reported as 0.38.
Work on U25C C40U G61U U69C yielded a self-cleavage of 0.07.
Variant U25C C40U U43C A45U has a self-cleavage of 0.16.
Work on U25C C40U U43G U49C G53C U72C C81A yielded a self-cleavage of 0.05.
Variant U25C C40U U80C has a self-cleavage of 0.21.
With U25C C44A U72A the self-cleavage was 0.07.
Work on U25C C44U A56G yielded a self-cleavage of 0.42.
Work on U25C C50A A56G yielded a self-cleavage of 0.21.
U25C C50U G52A gave a self-cleavage of 0.13.
U25C C50U U58G C62U gave a self-cleavage of 0.07.
U25C C50U U60C U80C gave a self-cleavage of 0.2.
Work on U25C C59A A75U U76G yielded a self-cleavage of 0.15.
In the case of U25C C59U A64C U72C, the self-cleavage is reported as 0.1.
U25C C59U U60A G73A gave a self-cleavage of 0.22.
For U25C C62G U67C, the self-cleavage was 0.15.
U25C C62G U72C showed a self-cleavage of 0.14.
With U25C C62U A65G the self-cleavage was 0.17.
U25C C62U A77U gave a self-cleavage of 0.06.
U25C C62U U67C U72A showed a self-cleavage of 0.06.
For U25C C62U U67C U76A, the self-cleavage was 0.11.
In the case of U25C C62U U69C, the self-cleavage is reported as 0.04.
For U25C C62U U76A, the self-cleavage was 0.07.
In the case of U25C C68A U80C, the self-cleavage is reported as 0.17.
For U25C C71A U76C, the self-cleavage was 0.07.
Variant U25C G30A A35G A56G U66C has a self-cleavage of 0.25.
For U25C G30A A45U A56G U66C A75G, the self-cleavage was 0.39.
Variant U25C G30A A47G has a self-cleavage of 0.13.
With U25C G30A A47G U48A the self-cleavage was 0.18.
U25C G30A C38U U67C U76C showed a self-cleavage of 0.06.
Variant U25C G30A G42A U51G has a self-cleavage of 0.14.
